Structures are written as SMILES. Screen size: about 340,000 compounds; about 6,900 (2%) were called active. Cut-off read from the data, not from the text of the source: active = inhibition above about 30%; inactive = below that, where a call was filed. The entries are a selection whose mix differs from that of the whole data set. Entries without a call were filed so in the source.

Sequence of UniProt P14416 (P14416 whole entry, looked up): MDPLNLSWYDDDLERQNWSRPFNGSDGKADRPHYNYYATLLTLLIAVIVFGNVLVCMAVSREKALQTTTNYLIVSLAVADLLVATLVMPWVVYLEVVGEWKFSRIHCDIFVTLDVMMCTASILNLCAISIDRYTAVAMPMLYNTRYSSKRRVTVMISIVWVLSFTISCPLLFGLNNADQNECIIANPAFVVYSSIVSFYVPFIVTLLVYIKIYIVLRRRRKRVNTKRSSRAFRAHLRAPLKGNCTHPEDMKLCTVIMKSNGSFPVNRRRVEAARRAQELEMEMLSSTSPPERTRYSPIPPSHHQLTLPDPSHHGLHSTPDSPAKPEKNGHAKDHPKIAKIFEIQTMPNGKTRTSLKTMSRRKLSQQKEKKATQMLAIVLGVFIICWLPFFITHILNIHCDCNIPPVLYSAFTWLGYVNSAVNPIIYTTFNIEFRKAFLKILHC

This assay has as its target D(2) dopamine receptor (Homo sapiens) (UniProt P14416). The assay can be described thus: HTS Assay for Allosteric Antagonists of the Human D2 Dopamine Receptor: Primary Screen for Antagonists. Note: 0% is about no effect. The following applies: HEK293 TREx D2 cells, calcium flux, dopamine EC80; at 10 µM; stronger effect = higher value. A digest of the protocol:
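Tetracycline-induced HEK293 T-REx cells expressing D2 force-coupled to calcium signalling were dye-loaded, exposed to compound for 180 s, then challenged with an EC80 of dopamine; calcium flux was followed kinetically for a further 180 s.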
In general terms: A change in cytosolic calcium serves as a functional read-out for many receptors and channels.
On to `CCc1ccc(NC(=O)Cn2cnc3nc4c(cc3c2=O)CCCC4)cc1`, for which the inhibition was -24.1%.

In the case of `CCOC(=O)c1cc2c(=O)n3ccccc3nc2n(CC(C)C)c1=NC(=O)C(C)(C)Oc1ccc(Cl)cc1`, the inhibition was determined as 2.37%.

As for `Cc1ccc(C(=O)N2CC(=O)Nc3ccc(Br)cc3C2c2ccc(F)cc2)cc1C` (stereo not given), the inhibition is -9.44%.

Consider `CCOC(=O)N1CCN(C/C(C)=C/c2ccccc2)CC1`, for which the inhibition is active: 63.4%.

Take `COc1ccc(CNC(=O)Cc2c(C)c3c(O)cc(C)cc3oc2=O)cc1`: the inhibition was -2.62%.

Consider `CCN1CCN(C(=O)Cn2c(-c3cccs3)cc3cc(Cl)ccc32)CC1`, for which the inhibition was 5.05%.

For `Cc1ccc(C)c(N2CCN(C(=O)CCc3c(C)nc4c(c3C)c(=O)n(C)c(=O)n4C)CC2)c1`, the inhibition was determined as 15.9%.

With `COc1ccccc1CNC(=O)c1cc(S(=O)(=O)N2CCCC2)cn1C`, the inhibition was active: 36.6%.

In the case of `CC1CCc2onc(C(=O)N3CCN(c4ccc(Cl)cc4)CC3)c2C1` (stereo not given), the inhibition stood at 9.7%.

In the case of `Cc1ccc(Cn2ccn(Cc3ccc(C)cc3)c(=O)c2=O)cc1`, the inhibition turned out to be 0.0734%.

With `COc1cccc(OC)c1C(=O)OCC(=O)N1CC(C)CC(C)C1` (stereo not given), the inhibition was active: 32%.

As to `COc1ccc(N2C(=O)NC(NS(=O)(=O)c3ccc(NC(C)=O)cc3)(C(F)(F)F)C2=O)cc1` (stereo not given), the inhibition was -13%.

`CCOc1ccc(CNC(=O)CCCn2nc(C)c3c(C)n(-c4ccc(C)cc4)nc3c2=O)cc1`: the inhibition is -6.91%.

Take `CCc1c(C)sc2c1CCN(C(=O)Nc1ccccc1Cl)C2c1ccc(OC)cc1` (stereo not given): the inhibition amounted to 2.57%.

On to `Cc1cc(-n2c(SCc3ccccc3F)nc3[nH]ncc3c2=O)ccc1Cl`, for which the inhibition is -12.5%.

For `Cc1ccc(-c2noc(-c3ccc(NC4CCCC4)c([N+](=O)[O-])c3)n2)cc1`, the inhibition came to 2.09%.

`Cc1cc(Cl)ccc1NC(=O)C1CCCN1S(=O)(=O)c1ccc2c(c1)CCCC(=O)N2` (stereo not given): the inhibition was 12.3%.

In the case of `CS(=O)(=O)c1ncc(N(Cc2ccco2)Cc2cccs2)c(C(=O)Nc2ccccc2F)n1`, the inhibition was -20%.

With `CC(C)(C)OC(=O)N1CCC(c2nnc(SCc3ccccc3Cl)o2)CC1`, the inhibition is 23.3%.

As for `CCC(=O)Nc1ccc(C)cc1-c1nc2ccccc2n(CC(=O)c2ccc(C)cc2)c1=O`, the inhibition was determined as 11.9%.

For the compound `CCCCNC(=O)Cn1c(=O)cc(C)c2c(C)nn(-c3cccc(Cl)c3C)c21`, the inhibition was determined as 18.4%.

`Cc1noc2ncnc(N3CCCC(C(=O)Nc4cc(F)ccc4F)C3)c12` (stereo not given): the inhibition was -2.94%.

`COc1ccccc1NC(=O)C1=C(C)Nc2nc(-c3ccco3)nn2C1c1cccc(C)c1` (stereo not given): the inhibition was -12.2%.

`CCOC(=O)c1c(C)c(C(=O)NCc2ccc(Cl)cc2)c(C)n1C`: the inhibition is -20.5%.

In the case of `CCc1ccc(-n2c(=O)c3c(C)c(C(=O)N(C)C)sc3n(CC(=O)Nc3cc(Cl)ccc3C)c2=O)cc1`, the inhibition was 13.1%.

As to `CC(CNc1nc2ccccc2c2nc(-c3ccccc3)nn12)c1ccccc1` (stereo not given), the inhibition was 14.4%.

With `COc1ccc(NC(=O)c2cc3c(=O)n(C)c4cc(Cl)ccc4c3s2)cc1Cl`, the inhibition is -4.11%.

Consider `CC(=O)Nc1cccc(NC(=O)CSc2cn(CC(=O)N3CCCC3)c3ccccc23)c1`, for which the inhibition worked out at 12%.

Take `CCCS(=O)(=O)c1nc(S(=O)(=O)c2ccc(C)cc2)c(NCC(C)C)s1`: the inhibition was -5.65%.

As to `CC1CCN(S(=O)(=O)c2ccc3c(ccc(=O)n3CC(=O)NCc3ccccc3)c2)CC1`, the inhibition was 23.9%.

Turning to `Cc1ccc(CCNC(=O)c2oc(=O)c3ccccc3c2-c2ccc(C)cc2)cc1`, the inhibition worked out at 5.02%.

Consider `CCOC(=O)c1c(-c2ccc(Br)cc2)csc1NC(=O)c1ccc(C(C)(C)C)cc1`, for which the inhibition stood at 9.17%.

Regarding `Cc1ccc(CNC(=O)c2cc(=O)c3cc(C)c(C)cc3o2)cc1`, the inhibition was -18.4%.

`CC1CCCCN1Cc1c(O)ccc2c(=O)c(-c3ccc(Cl)cc3)coc12` (stereo not given): the inhibition turned out to be 1.02%.

`COc1ccc(CNC(=O)C2CCCN(C(=O)c3cnn(-c4ccc(F)cc4)c3-n3cccc3)C2)cc1` (stereo not given): the inhibition was -0.845%.

On to `O=C(NCCS(=O)(=O)N1CCN(c2ccc(F)cc2)CC1)c1ccccc1Br`, for which the inhibition stood at 13%.

In the case of `CCOc1ccc(CC(=O)NCCc2sc(-c3cccc(F)c3)nc2C)cc1`, the inhibition is -27.5%.

As to `COc1ccc(NC(=O)c2cc(=O)c3cc(C)cc(C)c3o2)cc1`, the inhibition was -13.8%.

On to `Cc1nc2c(-c3ccccc3)c(C)[nH]n2c(=O)c1Cc1ccc(Br)cc1`, for which the inhibition was -11.7%.

With `CCOc1cccc2sc(NC(=O)c3ccc(S(=O)(=O)N4CCCCC4)cc3)nc12`, the inhibition was determined as 7.33%.

In the case of `Cc1ccccc1OCC(=O)Nc1ccc2[nH]c(=O)sc2c1`, the inhibition was -8.82%.

As for `COc1ccc(CCNC(=O)c2nc(SCc3ccc(F)cc3)ncc2Cl)cc1OC`, the inhibition came to 1.48%.

For the compound `CCCCCCC(=O)Nc1cc2nc3c(nc2cc1C)c(=O)n(C)c(=O)n3C`, the inhibition turned out to be 10.8%.

In the case of `Cc1ccc(CCNC(=O)C(C)n2nc(C)c3c(C)n(-c4ccc(C)cc4)nc3c2=O)cc1` (stereo not given), the inhibition was found to be 7.07%.

For the compound `CCOC(=O)N1CCC(N2CCN(Cc3ccccc3)C(CCO)C2)CC1` (stereo not given), the inhibition was active: 76.2%.

As to `CCc1ccc(C2CC(=O)c3c([nH]c(C(=O)OC4CCCCCC4)c3C)C2)cc1` (stereo not given), the inhibition was found to be 20.5%.

As to `Cc1c(C)n(C)c2ccc(C(=O)NCCCN3CCN(c4ccccc4F)CC3)cc12`, the inhibition was active: 98.3%.

Take `O=C(CSc1nc(-c2ccco2)nc2cc(=O)[nH]n12)Nc1ccc(F)cc1`: the inhibition was -6.69%.

As to `COc1ccc(Nc2cc(C(=O)NCCCN3CCOCC3)c3ccccc3n2)cc1OC`, the inhibition was active: 30.1%.

In the case of `CCN1CCN(Cc2nc3cc(NC(=O)c4cccc([N+](=O)[O-])c4)ccc3n2CC)CC1`, the inhibition was -15.1%.

With `COc1ccc(C2CC(=O)Nc3cc4c(cc32)OCO4)c(OC)c1` (stereo not given), the inhibition stood at 8.58%.

Consider `CCc1ccc(NC(=O)Cn2c(C(=O)OC)cc3oc(C)cc32)cc1`, for which the inhibition was -9.13%.

Turning to `Cc1ccc(NC(=O)C(Cc2ccccc2)NS(=O)(=O)c2ccc3c(c2)oc(=O)n3C)cc1C` (stereo not given), the inhibition is -25.6%.

On to `CC(C)(C)C(=O)Cn1c(=O)n(CCCCCC(=O)NCc2ccccc2Cl)c(=O)c2sccc21`, for which the inhibition amounted to 11.3%.

On to `CC(=O)c1ccc(N2CCN(C(=O)Nc3cn(CC(C)C)c(=O)c4ccccc34)CC2)cc1`, for which the inhibition worked out at 21.9%.

Consider `CC1Sc2ccc(S(=O)(=O)N3CCC(C(=O)Nc4cccc(Cl)c4)CC3)cc2NC1=O` (stereo not given), for which the inhibition was active: 69.5%.

Take `CCOC(=O)c1c(C)[nH]c(C)c1S(=O)(=O)NCC(=O)Nc1cc(Cl)ccc1OC`: the inhibition is -4.75%.

Take `CSc1ccccc1NC(=O)Nc1cccc(Cl)c1`: the inhibition is active: 36.2%.

On to `CC(=O)c1ccc(NC(=O)COc2ccccc2-c2nc(C(C)C)no2)cc1`, for which the inhibition came to 10.2%.

As for `COc1ccc(C)cc1Nc1c2c(nc3ccccc13)CCC2`, the inhibition is -17.6%.

Turning to `O=C(COc1ccccc1)Nc1nnc2n1CCS2`, the inhibition stood at 13.4%.

`Cc1ccc(NC(=O)c2c(Nc3ccccc3C)sc(C(=O)c3ccccc3)c2N)cc1`: the inhibition was determined as 9%.

As to `CCOC(=O)c1ccc(OCC2c3cc(OC)c(OC)cc3CCN2C(=O)Cc2ccc(F)cc2)cc1` (stereo not given), the inhibition was -14.6%.

As to `CCc1nn(CC(=O)NC(C)C)c(=O)c2cc3cc(F)ccc3n12`, the inhibition was 2.9%.

Take `CC(=O)N1CCCc2cc(S(=O)(=O)N(C)CC(=O)Nc3ccc(F)cc3Cl)ccc21`: the inhibition worked out at 1.44%.

For the compound `CSc1ccc(/C=C/C(=O)OCC(=O)c2ccc[nH]2)cc1`, the inhibition is active: 50.4%.

Turning to `CN(C)c1nc(Oc2ccc(=O)[nH]n2)nc(N2CCCCC2)n1`, the inhibition was active: 31.2%.

Regarding `CCOc1ccc(N(CC(=O)Nc2ccc(F)cc2F)S(=O)(=O)c2c(C)[nH]c(=O)[nH]c2=O)cc1`, the inhibition worked out at 1.9%.

With `CN1C(=O)c2ccccc2Sc2ccc(NC(=O)Nc3ccccc3F)cc21`, the inhibition turned out to be 10.2%.

Take `CCOCCCn1c(=N)c(S(=O)(=O)c2ccc(C)cc2)cc2c(=O)n3cccc(C)c3nc21`: the inhibition came to 3.24%.

Take `COc1ccc(CN(CCC(c2ccc3c(c2)OCO3)c2ccccc2OC)C(C)=O)cc1` (stereo not given): the inhibition is -7.01%.

Consider `Cc1cccc(C)c1Nc1c(-c2ccsc2)nc2ccccn12`, for which the inhibition was determined as 2.5%.

Consider `COc1ccc(CNC(=O)CCn2nc(C)c3c(C)n(-c4ccccc4)nc3c2=O)cc1OC`, for which the inhibition was -12.5%.

Take `O=C(CCN1CCN(c2ccccc2)CC1)NNC(=S)Nc1ccccc1`: the inhibition is active: 61.2%.

Regarding `Cc1cccn2c(=O)c(/C=C(\C#N)c3nc4ccccc4n3C)c(Oc3ccc(Br)cc3)nc12`, the inhibition is -21.4%.

Take `O=C(CN1CCN(c2ccc(Cl)cc2)CC1)Nc1ccc(F)cc1F`: the inhibition is 3.33%.

As for `Cc1ccc(NC(=O)CCCn2nc(C)c3c(C)n(-c4ccccc4)nc3c2=O)cc1Cl`, the inhibition turned out to be 2.91%.

On to `Cc1ccc(NC(=O)c2sc3ccccc3c2Cl)cc1`, for which the inhibition stood at 15%.

For `Cc1ccc(CN2C(=O)c3ccccc3C2C(=O)NC2CCCCCC2)cc1` (stereo not given), the inhibition was -9.03%.

`O=C(Nc1cccc(C(=O)N2CCCCC2)c1)c1nsc2ccccc12`: the inhibition was -15.2%.

Regarding `CCc1ccc(-n2nc(C)c3c(C(=O)Nc4cccc(C(F)(F)F)c4)cc(C)nc32)cc1`, the inhibition was -4%.

As to `Cc1cc(O)c(C(c2ccc(F)cc2)N2CCCCC2)c(=O)n1Cc1ccco1` (stereo not given), the inhibition is -9.19%.

For the compound `Cc1cc(Nc2cccc(C(F)(F)F)c2)nc2ccc(NC(=O)c3ccc(N(C)C)cc3)cc12`, the inhibition is -5.11%.

On to `CCOc1ccccc1NC(=O)c1c(C)cc(C)nc1SCC(=O)c1cccc(OC)c1`, for which the inhibition was -4.86%.

For the compound `Cc1cccc(/C=C/c2onc(C)c2S(=O)(=O)N2CCC(C(=O)N3CCC(C)CC3)CC2)c1`, the inhibition is -16.8%.

For `Cc1ccc(C(C)C)c(OCC(=O)Nc2c(C(=O)c3ccccc3)oc3ccccc23)c1`, the inhibition was 0.0481%.

As for `CCC(CC)C(=O)Nc1cccc(-c2nc3cccnc3s2)c1C`, the inhibition was 11.6%.

On to `COc1ccccc1-c1nc(S(=O)(=O)c2ccc(Cl)cc2)c(N2CCCCCC2)o1`, for which the inhibition is -0.27%.

`CCOc1ccc(CNC(=O)C2CCCN(c3nc4c(C)cc(C)cc4s3)C2)cc1` (stereo not given): the inhibition was determined as 23.7%.

Regarding `COc1ccc(-n2nc3ccc(NC(=O)c4cc5ccccc5o4)cc3n2)cc1Cl`, the inhibition stood at 6.87%.

On to `CCOc1cc(C2C(C(=O)OC)=C(C)NC3=C2C(=O)c2ccccc23)ccc1O` (stereo not given), for which the inhibition was 21.7%.

On to `O=C(Nc1ccc(N2CCC(N3CCCCC3)CC2)c(C(=O)O)c1)c1ccc(Br)cc1`, for which the inhibition was -23.6%.

With `CC1(C)O[C@H]2[C@@H](O1)[C@@H](C(=O)Nc1ccccc1O)O[C@@H]1OC(C)(C)O[C@@H]12`, the inhibition was -4.13%.

With `CCc1ccc(-c2nn(CC(=O)NC3CCCC3)c3c2cnc2ccc(C)cc23)cc1`, the inhibition came out at 9.01%.

`O=C(CN1C(=O)COc2ccc(S(=O)(=O)N3CCCCC3)cc21)NCc1ccc(F)cc1`: the inhibition came to 19.1%.

Broadly, the inhibition is the relative decrease from the control value, in per cent.
